The other results are listed elsewhere or left out.
Each sequence was assayed on PfSIP2 AP2 domain 1 (GST-tagged) (assay: gcPBM binding intensity (ln(normalized median fluorescence intensity)); higher = stronger DNA binding).
Summary of the method: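 GST-tagged P. falciparum DNA-binding domains, expressed in E. coli (about 25 μg on average), were applied for 1 h to an Agilent 4 × 180k array of primer-extended double-stranded 36-bp intergenic genomic probes plus negative controls. The binding buffer was 1× PBS with 1% milk, 0.2 mg/ml BSA, 0.5% salmon testes DNA and 0.03% Triton X-100. Bound protein was detected with Alexa488 anti-GST antibody and scanned at 488 nm. Binding intensity is the highest Masliner-normalised natural-log median intensity across replicate spots of either probe orientation.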

Row | Sequence | gcPBM binding intensity (ln)
1 | TAATAAGTACCTTTTGCATGTGGCACGCTTTTTTTT [TGCATGCA_site573] | 6.75
2 | TATTATATAACAAAAAGTACTTATAAGAAATATATA [XGTACX_site5467] | 7.26
3 | AAATGAATTATATAATATATATAAATAAATAAATAA [CACACA_negctrl_site359] | 7.2
4 | ATATTTCATCTAGCTACACACATATAATAAATTATT [CACACA_site4094] | 7.31
5 | TTTTCAATATATAGAGCATGCGCATCCACAAATATG [TGCATGCA_site380] | 6.89
6 | AATGGAAAATTATTAACACACACATATAAATATATA [CACACA_site7899] | 6.91
7 | TGCCAATTTTTAAAAACATGCATTATATAGAATAAA [TGCATGCA_site872] | 7.06
8 | ATTAAAAGGGGGTTTACATGTGTGTGTGTAATATGG [TGCATGCA_negctrl_site293] | 7.32
9 | TACAACAATTTTTGCACACACCAAAACATAAAATAA [CACACA_site4964] | 7.52
10 | TTATACATTTGTAAATAAATAGAACTGTATTTTTTT [TGCATGCA_negctrl_site397] | 6.61
11 | TATATACCGATATATACACACAAATACATAAGCTTC [CACACA_site6760] | 6.84
12 | AATAATCATTTTCATAGTACGTATGATTAGAAAAAA [XGTACX_site2589] | 6.98
13 | TTTTGATTGTTATTCGTATATTATTTTATGATTATA [CACACA_negctrl_site1593] | 6.8
14 | CAAAATATTTTTATAACACACATATTTATAACGTGC [CACACA_site6659] | 6.97
15 | TAAATACACTGTAGCGCACACGGCCAAAAAAAAAAA [CACACA_site1818] | 7.25
16 | TTATTATCCTATATTTCTTTTCCTTCTTCAAAATTA [CACACA_negctrl_site1314] | 7.07
17 | TACTATCTATACAATACACACAAAAAAAAAAAAATA [CACACA_site3981] | 6.95
18 | TAATATCATTTATATTGTACTATAACAAAATCTATA [XGTACX_site7700] | 6.8
19 | TATGTCAATTTTCATACATGCGCATAATCTTTATTT [TGCATGCA_site807] | 6.9

Row | Sequence | gcPBM binding intensity (ln)
20 | ATAAATAAGATACGTACACACATATACAAAATATAC [CACACA_site3661] | 7.3
21 | TATAAAACCCTACTGTTTCTTCTTTATTGATATATT [TGCATGCA_negctrl_site285] | 6.63
22 | AAAGTTTTTATACATACACACCTATAAATTAAGTGC [CACACA_site7198] | 6.99
23 | GAAAGAATAAAATAAACATGCAAATAAAACATAAAA [TGCATGCA_site471] | 7.2
24 | AATTGTAAATTGGGCACTTATAAAAATGAACAAATA [CACACA_negctrl_site1583] | 7.06
25 | TCATAAAGAACAAAGTGTACCTATATATTACATACA [XGTACX_site7595] | 6.9
26 | AGGTAGTTCTGTATCACACACATATATATATATATA [CACACA_site2214] | 9.51
27 | ACTCTTAAAATGTATTGTACATAATTTTTACAAGGG [XGTACX_site6611] | 7.1
28 | CAAAAACGGAAGTGGTGTACCGATATTATATAAACA [XGTACX_site4962] | 6.89
29 | GGAGAATAGTGGAAAACACACACGTTTGAGATATGG [CACACA_site1168] | 6.8
30 | TTTTTTTTTTTTACCTGTACATGTCAGCAAACTTTT [XGTACX_site1171] | 7.07
31 | AACATTATAAGACACACACACACATATATATATATA [CACACA_site8259] | 9.25
32 | TTTCCATTATGATATAGTACATAAATATATGTAATA [XGTACX_site6992] | 7.11
33 | TTGTGTGTATGTATACATATATATATTGAGACGAAT [TGCATGCA_negctrl_site382] | 7.34
34 | AAAAAAAATATATAAACACACATATTTATATACTCA [CACACA_site4984] | 6.75
35 | ACATATAATAAAAAATGTACACACATAAGAAAATTT [XGTACX_site6153] | 7.12
36 | ACTATAAATATATAAATATATATATATATATATATA [GTGCAC_negctrl_site65] | 9.73
37 | ATTTATAATCAGGGTTGTACACTTATAGAATTTTTA [XGTACX_site4175] | 6.9
38 | AATCTTCATACCAACACATGCACAAAAGAAATAAAA [TGCATGCA_site563] | 7.94

Row | Sequence | gcPBM binding intensity (ln)
39 | CATAAGAAAATAAAAACATGCACATAAGAAATATAC [TGCATGCA_site842] | 7.97
40 | ATATAAATATATGGAAGTACACAAAAAAATTAAAAA [XGTACX_site8624] | 6.93
41 | TATATTTATACATATTGTACATTTTATACTTTTACA [XGTACX_site3884] | 7.09
42 | ATTATTAAAAAGATGTAAATAAATGAATATATGCTT [CACACA_negctrl_site539] | 6.85
43 | TTCTATATATTTTAATGTACATATATGATTATTCTT [XGTACX_site8294] | 7.12
44 | TATTAAGAATTTACATGTACTTGTTAAATAAGAAAA [XGTACX_site4466] | 7.09
45 | ATATAGTATAATAAAAGTACATTTTGATTTTTTCTC [XGTACX_site1797] | 6.93
46 | GTCGCATTTTATACAAGTACACATGAATTATACAAC [XGTACX_site2200] | 7.68
47 | TAAATAATATCTATCACACACGCATATATACATATA [CACACA_site2622] | 6.9
48 | TTCAAAAAAATGTATACACACATAAGTATAATATAA [CACACA_site3758] | 6.91
49 | TGTTTATGTATCAATTGTACAAAAAAAAAAAAAAAA [XGTACX_site1590] | 7.21
50 | GATTTTTTTTTTTTTTCACACACTAATAATATTATC [CACACA_site464] | 7.07
51 | CTTATGTGCATACCTACACACTTACAGATATATATA [CACACA_site5622] | 7.92
52 | TTCAAATATTTTATTTGTACATAAAAAAGAAAGTTA [XGTACX_site8287] | 6.95
53 | TAGGAAGAATTACTGTGTACTAAAATATTAAAAAGT [XGTACX_site4909] | 7.32
54 | ATAAATGAAAAAAAGCGTACATATAAAAAAATATAT [XGTACX_site5063] | 7.3
55 | ACTTACCCATTTATTACACACATAAAGGAAAATTTT [CACACA_site4873] | 7.77
56 | TGTAAATAATATAATAGTACGCATATTTTTATTGAA [XGTACX_site284] | 7.02

Reference: the supplement of paper PMC11417369
